Reference: PMC4336329 (PLoS ONE, 2015)
The whole screen tested about 310,000 compounds, of which about 14,000 (4.5%) showed an effect of 50% or more. The effect is printed as a negative number. Some of the results follow.
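Also: peak tail current of the secondary pulse compared with the same well before compound.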

Each compound was assayed against human ether-à-go-go-related gene (hERG) potassium channel (human, UniProt Q12809) (assay: primary screen, population patch clamp on CHO cells stably expressing hERG).
Chain of human ether-à-go-go-related gene (hERG) potassium channel (Q12809 whole entry, looked up): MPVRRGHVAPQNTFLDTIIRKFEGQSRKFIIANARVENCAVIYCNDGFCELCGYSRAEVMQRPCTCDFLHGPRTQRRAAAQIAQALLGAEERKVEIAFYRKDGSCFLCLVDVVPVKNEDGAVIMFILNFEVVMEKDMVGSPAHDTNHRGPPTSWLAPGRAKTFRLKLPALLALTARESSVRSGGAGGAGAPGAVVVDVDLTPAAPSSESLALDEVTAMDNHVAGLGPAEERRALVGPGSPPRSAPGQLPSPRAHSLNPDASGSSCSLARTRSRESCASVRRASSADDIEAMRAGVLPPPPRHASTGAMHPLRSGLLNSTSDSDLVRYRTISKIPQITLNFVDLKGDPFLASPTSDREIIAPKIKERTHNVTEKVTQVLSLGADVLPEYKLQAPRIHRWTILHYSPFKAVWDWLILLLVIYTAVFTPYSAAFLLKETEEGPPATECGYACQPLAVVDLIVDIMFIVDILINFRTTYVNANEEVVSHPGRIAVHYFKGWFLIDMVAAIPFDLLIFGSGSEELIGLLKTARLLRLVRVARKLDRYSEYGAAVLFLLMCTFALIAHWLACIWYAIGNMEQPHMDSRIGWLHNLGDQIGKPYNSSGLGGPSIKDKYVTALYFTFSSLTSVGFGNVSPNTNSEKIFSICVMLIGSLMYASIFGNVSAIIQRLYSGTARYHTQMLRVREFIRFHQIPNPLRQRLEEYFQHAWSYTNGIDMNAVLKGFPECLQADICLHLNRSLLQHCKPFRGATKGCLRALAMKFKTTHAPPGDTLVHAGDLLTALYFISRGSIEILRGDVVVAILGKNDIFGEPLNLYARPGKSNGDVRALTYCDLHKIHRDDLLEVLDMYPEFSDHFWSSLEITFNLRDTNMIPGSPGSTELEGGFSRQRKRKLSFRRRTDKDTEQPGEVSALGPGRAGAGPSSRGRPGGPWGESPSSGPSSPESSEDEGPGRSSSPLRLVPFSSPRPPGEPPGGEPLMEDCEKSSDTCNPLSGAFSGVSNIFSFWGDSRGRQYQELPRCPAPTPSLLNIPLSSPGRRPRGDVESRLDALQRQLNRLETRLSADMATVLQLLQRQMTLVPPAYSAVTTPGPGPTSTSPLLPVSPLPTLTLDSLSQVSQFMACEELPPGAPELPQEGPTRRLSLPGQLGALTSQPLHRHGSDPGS
In the case of `COc1ccc(C=O)cc1Cn1c(=O)n(CCC(=O)NCc2ccco2)c(=O)c2sccc21`, the “hERG current change (%, negative = inhibition) at 10uM” value is reported as -2.3%.
For `O=C(Nc1ccc(Br)cc1)c1cc(S(=O)(=O)Nc2ccccn2)ccc1Cl`, the “hERG current change (%, negative = inhibition) at 10uM” value was 15.3%.
With `CCCn1c(/N=C/c2c[nH]c3ccccc23)nc2ccccc21` the “hERG current change (%, negative = inhibition) at 10uM” value was -6.18%.
`O=C(O)CCc1nn2c3ccccc3n(CC(=O)O)c2nc1=O` was tested, and the “hERG current change (%, negative = inhibition) at 10uM” value was 1.48%.
In the case of `COc1ccc(-n2c(=O)c3ccccc3n(CC(=O)NC3CCCC3)c2=O)cc1`, the “hERG current change (%, negative = inhibition) at 10uM” value is reported as 10.7%.
With `CNC(=S)N(CCc1cccc(C)c1)Cc1cc2cc(OC)c(OC)cc2[nH]c1=O` the “hERG current change (%, negative = inhibition) at 10uM” value was -16.7%.
In the case of `C=CCN1C(=O)c2ccc(C(=O)N(C)CC(=O)Nc3c(C)cccc3C)cc2C1=O`, the “hERG current change (%, negative = inhibition) at 10uM” value is reported as 15.4%.
With `CC(C)c1ccc(/C=N/n2c(COc3ccccc3)n[nH]c2=S)cc1` the “hERG current change (%, negative = inhibition) at 10uM” value was 11.7%.
For `O=C1C2CCCN2c2ccc(S(=O)(=O)N3CCOCC3)cc2N1Cc1cccc(C(F)(F)F)c1` (centres unmarked), the “hERG current change (%, negative = inhibition) at 10uM” value was 7.28%.
For `CC(C(=O)Nc1ccc2[nH]c(=O)[nH]c2c1)N1CCN(Cc2ccc3c(c2)OCO3)CC1` (centres unmarked), the “hERG current change (%, negative = inhibition) at 10uM” value was -8.35%.
In the case of `COc1ccccc1NC(=O)COC(=O)Cc1c[nH]c2ccccc12`, the “hERG current change (%, negative = inhibition) at 10uM” value is reported as -2.78%.
With `CCN(CC(=O)NCc1cccs1)C(=O)c1ccc(S(=O)(=O)Nc2ccccc2)cc1` the “hERG current change (%, negative = inhibition) at 10uM” value was -15.6%.
`CCOC(=O)C(CC)/C(C)=N\NC(=O)c1cccc(C)c1` (centres unmarked) was tested, and the “hERG current change (%, negative = inhibition) at 10uM” value was 35.5%.
For `CC(C)n1c(SCC(=O)Nc2ccc3c(c2)OCO3)nc2c1c(=O)n(C)c(=O)n2C`, the “hERG current change (%, negative = inhibition) at 10uM” value was 1.22%.
With `Cc1ccc(-c2nc3ccccc3s2)cc1NC(=O)c1ccc2c(c1)OCO2` the “hERG current change (%, negative = inhibition) at 10uM” value was 14.5%.
In the case of `O=C1C(Cl)=C(N2CCOCC2)C(=O)N1c1cccc(C(F)(F)F)c1`, the “hERG current change (%, negative = inhibition) at 10uM” value is reported as 17.3%.
`CCOc1ncccc1C(=O)Nc1cc(S(=O)(=O)N2CCCCC2)ccc1C` was tested, and the “hERG current change (%, negative = inhibition) at 10uM” value was 4.21%.
With `COc1ccc(CN2C(=O)c3oc4ccccc4c(=O)c3C2c2ccc(O)c(OC)c2)cc1` (centres unmarked) the “hERG current change (%, negative = inhibition) at 10uM” value was 4.88%.
For `COC(=O)c1c(C)[nH]c(/C=N/Nc2ccccc2)c1C`, the “hERG current change (%, negative = inhibition) at 10uM” value was 6.93%.
`CC1CC1C(=O)N1CCN(S(=O)(=O)c2cccc(F)c2)CC1` (centres unmarked) was tested, and the “hERG current change (%, negative = inhibition) at 10uM” value was 17.3%.
With `Cc1ccc(C(=O)O)cc1Nc1ncnc2sc3c(c12)CCC3` the “hERG current change (%, negative = inhibition) at 10uM” value was 8.51%.
For `Cc1ccccc1N(C(=O)c1snc(C(N)=O)c1N)C(C(=O)NCc1ccccc1)c1ccc(O)cc1` (centres unmarked), the “hERG current change (%, negative = inhibition) at 10uM” value was 19.5%.
In the case of `CCc1ccc2c(c1)C(=O)c1ccccc1C2=O`, the “hERG current change (%, negative = inhibition) at 10uM” value is reported as 14%.
